# Test results reported in the supplement of paper PMC8728848.
# This is one part of the list.
# B1: AAL (Agrocybe aegerita), Q6WY08 (protein)
# chain: MQGVNIYNISAGTSVDLAAPVTTGDIVTFFSSALNLNAGAGNPNNTTLNLFAENGAYLLHIAHRLQENVIIFNSRQPDGPWLVEQRVSDVANQFAGIDGKAMVTVFDHGDKYQVVINEKTVIQYTKQISGLTLSLSYNATEETSIFSTVVEAVTYTGLALEHHHHHH
# What was measured:
# Assay in all cases: glycan array binding signal (z-score within array); higher = stronger binding
# Settings in all cases: glycan notation: IUPAC condensed, linker removed; mutation: F63H
# [1] = target: Fuc(a1-2)[GalNAc(b1-3)]Gal
# Outline: (§1)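 The binding signal is a Z-score computed within each array. Data were drawn from 3228 arrays in the Consortium for Functional Glycomics database, restricted to those with a known protein sequence. Scores were averaged over arrays of the same protein sequence at different concentrations or buffers, and over linkers, and negative values can be taken as non-binding.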
# Fuc(a1-3)GlcNAc = target: Fuc(a1-3)GlcNAc
# Outline: as §1
# [2] = target: Fuc(a1-3)[Gal(b1-4)]Glc6S
# Outline: as §1
# [3] = target: Fuc(a1-3)[Gal(b1-4)]GlcNAc
# Outline: as §1
# [4] = target: Fuc(a1-3)[Gal(b1-4)]GlcNAc(b1-2)Man
# Outline: as §1
# [5] = target: Fuc(a1-3)[Gal(b1-4)]GlcNAc(b1-2)Man(a1-3)[Fuc(a1-3)[Gal(b1-4)]GlcNAc(b1-2)Man(a1-6)]Man(b1-4)GlcNAc(b1-4)GlcNAc
# Outline: as §1
# [6] = target: Fuc(a1-3)[Gal(b1-4)]GlcNAc(b1-2)Man(a1-3)[Fuc(a1-3)[Gal(b1-4)]GlcNAc(b1-2)Man(a1-6)]Man(b1-4)GlcNAc(b1-4)[Fuc(a1-6)]GlcNAc
# Outline: as §1
# [7] = target: Fuc(a1-3)[Gal(b1-4)]GlcNAc(b1-3)Gal(b1-3)[Fuc(a1-4)]GlcNAc
# Outline: as §1
# [8] = target: Fuc(a1-3)[Gal(b1-4)]GlcNAc(b1-3)Gal(b1-4)[Fuc(a1-3)]GlcNAc
# Outline: as §1
# [9] = target: Fuc(a1-3)[Gal(b1-4)]GlcNAc(b1-3)Gal(b1-4)[Fuc(a1-3)]GlcNAc(b1-3)Gal(b1-4)[Fuc(a1-3)]GlcNAc
# Outline: as §1
# [10] = target: Fuc(a1-3)[Gal(b1-4)]GlcNAc(b1-3)GalNAc
# Outline: as §1
# [11] = target: Fuc(a1-3)[Gal(b1-4)]GlcNAc(b1-6)GalNAc
# Outline: as §1
# [12] = target: Fuc(a1-3)[Gal(b1-4)]GlcNAc(b1-6)[Gal(b1-3)GlcNAc(b1-3)]Gal(b1-4)Glc
# Outline: as §1
# [13] = target: Fuc(a1-3)[Gal(b1-4)]GlcNAc6S
# Outline: as §1
# [14] = target: Fuc(a1-3)[Gal3S(b1-4)]Glc
# Outline: as §1
# [15] = target: Fuc(a1-3)[Gal3S(b1-4)]GlcNAc
# Outline: as §1
# [16] = target: Fuc(a1-3)[Gal3S(b1-4)]GlcNAc6S
# Outline: as §1
# [17] = target: Fuc(a1-3)[GalNAc(b1-4)]GlcNAc
# Outline: as §1
# [18] = target: Fuc(a1-3)[GalNAc(b1-4)]GlcNAc6S
# Outline: as §1
# Fuc(a1-4)GlcNAc = target: Fuc(a1-4)GlcNAc
# Outline: as §1
# Fuc(b1-3)GlcNAc = target: Fuc(b1-3)GlcNAc
# Outline: as §1
# Gal(a1-2)Gal = target: Gal(a1-2)Gal
# Outline: as §1
# Gal(a1-3)Gal = target: Gal(a1-3)Gal
# Outline: as §1
# Gal(a1-3)Gal(b1-3)GlcNAc = target: Gal(a1-3)Gal(b1-3)GlcNAc
# Outline: as §1
# [19] = target: Gal(a1-3)Gal(b1-3)GlcNAc(b1-2)Man
# Outline: as §1
# [20] = target: Gal(a1-3)Gal(b1-3)GlcNAc(b1-2)Man(a1-3)[Gal(a1-3)Gal(b1-3)GlcNAc(b1-2)Man(a1-6)]Man(b1-4)GlcNAc(b1-4)GlcNAc
# Outline: as §1
# [21] = target: Gal(a1-3)Gal(b1-3)GlcNAc(b1-3)GalNAc
# Outline: as §1
# [22] = target: Gal(a1-3)Gal(b1-3)GlcNAc(b1-6)GalNAc
# Outline: as §1
# [23] = target: Gal(a1-3)Gal(b1-3)[Fuc(a1-4)]GlcNAc(b1-2)Man(a1-3)[Gal(a1-3)Gal(b1-3)[Fuc(a1-4)]GlcNAc(b1-2)Man(a1-6)]Man(b1-4)GlcNAc(b1-4)GlcNAc
# Outline: as §1
# Gal(a1-3)Gal(b1-4)Glc = target: Gal(a1-3)Gal(b1-4)Glc
# Outline: as §1
# Gal(a1-3)Gal(b1-4)GlcNAc = target: Gal(a1-3)Gal(b1-4)GlcNAc
# Outline: as §1
# [24] = target: Gal(a1-3)Gal(b1-4)GlcNAc(b1-2)Man
# Outline: as §1
# [25] = target: Gal(a1-3)Gal(b1-4)GlcNAc(b1-2)Man(a1-3)[Gal(a1-3)Gal(b1-4)GlcNAc(b1-2)Man(a1-6)]Man(b1-4)GlcNAc(b1-4)GlcNAc
# Outline: as §1
# [26] = target: Gal(a1-3)Gal(b1-4)GlcNAc(b1-3)GalNAc
# Outline: as §1
# [27] = target: Gal(a1-3)Gal(b1-4)GlcNAc(b1-6)GalNAc
# Outline: as §1
# [28] = target: Gal(a1-3)Gal(b1-4)[Fuc(a1-3)]GlcNAc
# Outline: as §1
# [29] = target: Gal(a1-3)Gal(b1-4)[Fuc(a1-3)]GlcNAc(b1-2)Man(a1-3)[Gal(a1-3)Gal(b1-4)[Fuc(a1-3)]GlcNAc(b1-2)Man(a1-6)]Man(b1-4)GlcNAc(b1-4)GlcNAc
# Outline: as §1
# Gal(a1-3)GalNAc = target: Gal(a1-3)GalNAc
# Outline: as §1
# [30] = target: Gal(a1-3)[Gal(a1-4)]Gal(b1-4)GlcNAc
# Outline: as §1
# [31] = target: Gal(a1-4)Gal(b1-3)GlcNAc(b1-2)Man(a1-3)[Gal(a1-4)Gal(b1-3)GlcNAc(b1-2)Man(a1-6)]Man(b1-4)GlcNAc(b1-4)GlcNAc
# Outline: as §1
# Gal(a1-4)Gal(b1-4)Glc = target: Gal(a1-4)Gal(b1-4)Glc
# Outline: as §1
# Gal(a1-4)Gal(b1-4)GlcNAc = target: Gal(a1-4)Gal(b1-4)GlcNAc
# Outline: as §1
# [32] = target: Gal(a1-4)Gal(b1-4)GlcNAc(b1-2)Man(a1-3)[Gal(a1-4)Gal(b1-4)GlcNAc(b1-2)Man(a1-6)]Man(b1-4)GlcNAc(b1-4)GlcNAc
# Outline: as §1
# [33] = target: Gal(a1-4)Gal(b1-4)GlcNAc(b1-3)Gal(b1-4)Glc
# Outline: as §1
# Gal(a1-4)GlcNAc = target: Gal(a1-4)GlcNAc
# Outline: as §1
binder,measurement,setting,value
B1,glycan array binding signal (z-score),[1],-0.544
same,glycan array binding signal (z-score),Fuc(a1-3)GlcNAc,-0.394
same,glycan array binding signal (z-score),[2],-0.357
same,glycan array binding signal (z-score),[3],-0.254
same,glycan array binding signal (z-score),[4],-0.067
same,glycan array binding signal (z-score),[5],-0.217
same,glycan array binding signal (z-score),[6],-0.069
same,glycan array binding signal (z-score),[7],-0.001
same,glycan array binding signal (z-score),[8],-0.051
same,glycan array binding signal (z-score),[9],-0.057
same,glycan array binding signal (z-score),[10],-0.273
same,glycan array binding signal (z-score),[11],-0.056
same,glycan array binding signal (z-score),[12],-0.124
same,glycan array binding signal (z-score),[13],-0.06
same,glycan array binding signal (z-score),[14],-0.254
same,glycan array binding signal (z-score),[15],-0.162
same,glycan array binding signal (z-score),[16],-0.069
same,glycan array binding signal (z-score),[17],0.22
same,glycan array binding signal (z-score),[18],-0.005
same,glycan array binding signal (z-score),Fuc(a1-4)GlcNAc,0.085
same,glycan array binding signal (z-score),Fuc(b1-3)GlcNAc,0.06
same,glycan array binding signal (z-score),Gal(a1-2)Gal,-0.435
same,glycan array binding signal (z-score),Gal(a1-3)Gal,-0.04
same,glycan array binding signal (z-score),Gal(a1-3)Gal(b1-3)GlcNAc,0.396
same,glycan array binding signal (z-score),[19],0.105
same,glycan array binding signal (z-score),[20],0.08
same,glycan array binding signal (z-score),[21],0.097
same,glycan array binding signal (z-score),[22],0.846
same,glycan array binding signal (z-score),[23],0.328
same,glycan array binding signal (z-score),Gal(a1-3)Gal(b1-4)Glc,-0.391
same,glycan array binding signal (z-score),Gal(a1-3)Gal(b1-4)GlcNAc,-0.342
same,glycan array binding signal (z-score),[24],-0.43
same,glycan array binding signal (z-score),[25],-0.111
same,glycan array binding signal (z-score),[26],0.052
same,glycan array binding signal (z-score),[27],-0.072
same,glycan array binding signal (z-score),[28],-0.414
same,glycan array binding signal (z-score),[29],-0.483
same,glycan array binding signal (z-score),Gal(a1-3)GalNAc,0.122
same,glycan array binding signal (z-score),[30],0.035
same,glycan array binding signal (z-score),[31],0.255
same,glycan array binding signal (z-score),Gal(a1-4)Gal(b1-4)Glc,-0.07
same,glycan array binding signal (z-score),Gal(a1-4)Gal(b1-4)GlcNAc,0.151
same,glycan array binding signal (z-score),[32],0.969
same,glycan array binding signal (z-score),[33],-0.143
same,glycan array binding signal (z-score),Gal(a1-4)GlcNAc,-0.628
